# Among all 350,000 compounds or so, about 260 (0.074%) were called active. The inconclusive results got no clear call from the source; some entries with a clear call stand among them for comparison. Calls follow the shape of the dose curve; as a rule, active = well fitted inhibition curve with a large enough effect; inconclusive = small, poorly fitted or top-dose-only effect; inactive = no such curve, though single readings can be large or run the other way. Where the call is inconclusive, the potency comes from a doubtful curve fit.
# Biological target: Ferritin light chain (Equus caballus) (UniProt P02791)
# Chain of UniProt P02791 (P02791 whole entry, looked up): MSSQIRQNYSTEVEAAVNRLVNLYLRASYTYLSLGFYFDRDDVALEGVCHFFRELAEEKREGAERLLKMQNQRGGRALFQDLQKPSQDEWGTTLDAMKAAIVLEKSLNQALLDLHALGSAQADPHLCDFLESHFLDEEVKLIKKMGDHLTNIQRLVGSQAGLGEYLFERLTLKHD
# Test: qHTS Assay for Identification of Novel General Anesthetics; also: nearly all actives have a fitted effect of over 20% in size
# Details: apoferritin/1-aminoanthracene competitive binding, fluorescence; activity change, negative = displacement: at 77.5 µM (top of the series)
# Procedure, shortened: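 Horse-spleen apoferritin (10 uM) was mixed with 50% saturated 1-aminoanthracene in PBS, exposed to compounds for 10 min at room temperature, and read for fluorescence (ex 380 nm, em 535 nm). Competitive displacement was fitted with a four-parameter Hill equation.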
# % is scaled to controls: 0 for no effect and ±100 for the full control effect; potency is read from the fitted curve at half-maximal effect; tags tell the direction and shape of the fitted curve.
SMILES,"activity change, negative = displacement",Potency
CC(=O)c1cc(-c2ccc(F)cc2)n(CC(=O)NCc2ccc(C)cc2)c1C,inactive: -12.4%,
CC(=O)c1ccc(NC(=O)c2cccc(N3C(=O)c4ccccc4C3=O)c2)cc1,inactive: -2.74%,
Cc1cc(C)c(OCC(=O)Nc2cccc(-c3nc4ncccc4o3)c2)c(Br)c1,,"inconclusive: 1 µM [inhibitor, partial curve]"
COCCn1c(SCCCC(=O)c2ccc(Br)cc2)nnc1-c1ccncc1,inactive: -15.8%,
CN(CC(=O)Nc1ccc(S(=O)(=O)N2CCCC2)cc1)CC(=O)Nc1ccc(F)c(F)c1F,,"inconclusive: 31.6 µM [inhibitor, partial curve]"
COc1cc(NS(=O)(=O)c2cccs2)cc(OC)c1,,"inconclusive: 12.6 µM [inhibitor, partial curve]"
CC(c1ccc(F)cc1)n1c(-c2ccc3ccccc3n2)n[nH]c1=S (configuration not stated),,"inconclusive: 28.2 µM [inhibitor, partial curve]"
O=C1CCCCCCC1Sc1ccccc1[N+](=O)[O-] (configuration not stated),,active: 7.94 µM
c1cncc(-c2nnc(SCc3cccc4ccccc34)o2)c1,,"inconclusive: 35.5 µM [inhibitor, partial curve]"
COc1ccccc1OCC(=O)N1CCCC(Nc2ccc(C)c(C)c2)C1 (configuration not stated),,"inconclusive: 25.1 µM [inhibitor, partial curve]"
CCCCCCCCS(=O)c1sc2nc(C)cc(C)c2c1N (configuration not stated),,"inconclusive: 44.7 µM [inhibitor, single point]"
COc1ccc(OCc2cc(C(=O)N3CCCCCCC3)no2)c(Cl)c1,,"inconclusive: 35.5 µM [inhibitor, partial curve]"
CCCCSCCCNC(=O)Nc1cccc(OC)c1,,"inconclusive: 12.6 µM [inhibitor, partial curve]"
CCCOc1cccc(-c2nnc(N)s2)c1,,"inconclusive: 31.6 µM [inhibitor, partial curve]"
COc1ccc(Nc2nc(-c3c(C)nc4ncccn34)cs2)cc1,,"inconclusive: 39.8 µM [inhibitor, partial curve]"
CC(=O)c1cnc2nc(SCc3ccc(C)cc3)nn2c1C,,"inconclusive: 28.2 µM [inhibitor, partial curve]"
Cc1cc(C2=NNC(=NCCc3ccccc3)SC2)c(C)n1CC1CCCO1 (configuration not stated),,"inconclusive: 25.1 µM [inhibitor, single point]"
O=C(/C=C/c1ccc(-c2ccccc2[N+](=O)[O-])o1)c1ccc(F)cc1,,"inconclusive: 39.8 µM [inhibitor, partial curve]"
COc1cccc(CN(C)C(=O)/C=C/c2ccc(S(=O)(=O)N3CCCCCC3)cc2)c1,,"inconclusive: 14.1 µM [inhibitor, partial curve]"
CN1CCN(C(=O)c2cc3c(ccc4ccccc43)oc2=O)CC1,inactive: 354%,
COc1ccc(N2CCN(C(=O)c3nn(C)c4c3CSc3ccccc3-4)CC2)cc1,inactive: -0.842%,
CC1=CCC2C(=O)N(c3ccc(C(=O)Nc4ccccc4Cl)cc3)C(=O)C2C1 (configuration not stated),,"inconclusive: 35.5 µM [inhibitor, single point]"
COc1cccc(/C=N/n2nnnc2N)c1,inactive: -1.77%,
COc1ccc(S(=O)(=O)n2nc(-c3cc(OC)c(OC)c(OC)c3)cc2N)cc1OC,inactive: -9.29%,

SMILES,"activity change, negative = displacement",Potency
COC(=O)c1c(NC(=O)CCS(=O)(=O)c2ccccc2)sc2c1CCN(C)C2,inactive: -11.9%,
NNC(=O)c1ccc(COc2ccc3ccccc3c2)o1,,"inconclusive: 15.8 µM [inhibitor, partial curve]"
Cn1nnnc1SCC(=O)N1CCc2ccccc2C1,,"inconclusive: 22.4 µM [inhibitor, partial curve]"
CSc1nnc(Nc2ccccc2C)s1,,"inconclusive: 35.5 µM [inhibitor, partial curve]"
O=C1NC2(CCCCC2)N=C1c1ccc(F)cc1,,"inconclusive: 22.4 µM [inhibitor, partial curve]"
COc1ccc(C2=NOC(C(=O)NC(C)(C)C)C2)cc1 (configuration not stated),inactive: -8.66%,
CCS(=O)(=O)c1ccc2oc(SCC(=O)NC34CC5CC(CC(C5)C3)C4)nc2c1,,"inconclusive: 35.5 µM [inhibitor, partial curve]"
Cc1ccccc1C(=O)c1cccn1CC(=O)NCCN1CCN(c2cccc(C)c2C)CC1,,"inconclusive: 28.2 µM [inhibitor, partial curve]"
O=S(=O)(c1ccc(NC(=S)NCc2ccc(F)cc2)cc1)N1CCOCC1,,"inconclusive: 35.5 µM [inhibitor, partial curve]"
COc1ccc(C(=O)/C=C/c2cc(OC)c(O)c(OC)c2)c(F)c1,inactive: 6.49%,
O=C(N/N=C/c1cccc2ccccc12)c1cccs1,inactive: -6.91%,
Cc1nc(NC2CCCCC2)c2nnn(Cc3ccccc3Cl)c2n1,,"inconclusive: 3.98 µM [inhibitor, full curve, poor fit]"
COc1ccc(-n2c(SCC(=O)NCc3ccccc3)nc3n[nH]c(C)c3c2=N)cc1,inactive: -0.413%,
O=C(N/N=C/c1ccco1)C12CC3CC(CC(C3)C1)C2,,"inconclusive: 31.6 µM [inhibitor, partial curve]"
Cc1ccc(/C(C#N)=C\c2ccc(N3CCOCC3)o2)cc1,inactive: 0.388%,
CCN(CC)CCCNC(=O)c1ccccc1C,inactive: -4.87%,
COc1cccc(NS(=O)(=O)c2ccc(Br)s2)c1,,"inconclusive: 10 µM [inhibitor, partial curve]"
CCn1c(Oc2ccc(F)cc2)nc2c1c(=O)n(C)c(=O)n2C,inactive: -7.72%,
O=[N+]([O-])c1ccccc1Sc1nccn1Cc1ccccc1,,"inconclusive: 22.4 µM [inhibitor, partial curve]"
COc1ccccc1C1SCCN1S(C)(=O)=O (configuration not stated),,active: 11.2 µM
NS(=O)(=O)c1cccnc1Nc1cccc(Cl)c1,,"inconclusive: 14.1 µM [inhibitor, partial curve]"
CCCOC(=O)Cn1c(=O)c2cc3c(=O)n(CC(=O)OCCC)c(=O)c3cc2c1=O,,"inconclusive: 14.1 µM [inhibitor, partial curve]"
CCn1c(=O)c2cc(C(=O)N(C)c3cc(Cl)c(OC)cc3OC)sc2c2ccccc21,inactive: -18.4%,
O=C(Nc1cccc(S(=O)(=O)N2CCOCC2)c1)C(c1ccccc1)N1CCCCC1 (configuration not stated),inactive: -1.84%,

SMILES,"activity change, negative = displacement",Potency
O=C(COC(=O)CC1CC2CCC1C2)Nc1ccc(F)cc1 (configuration not stated),,"inconclusive: 44.7 µM [inhibitor, single point]"
Cc1ccc2c(c1)C(O)(CC(=O)c1cccc(-n3cccc3)c1)C(=O)N2 (configuration not stated),,"inconclusive: 35.5 µM [inhibitor, single point]"
Cc1ccc(S(=O)(=O)Nc2ccc(NC(=O)c3c(F)c(F)c(F)c(F)c3F)cc2)cc1,,"inconclusive: 28.2 µM [inhibitor, partial curve]"
O=C1C2C3C=CC(CC3)C2C(=O)N1c1ccccc1F (configuration not stated),,"inconclusive: 31.6 µM [inhibitor, single point]"
Cc1ccccc1NC(=O)c1ccc(F)c(S(=O)(=O)NC2CCCC2)c1,,"inconclusive: 31.6 µM [inhibitor, single point]"
CCc1nnc(NS(=O)(=O)c2ccc(NC(=S)NC(=O)/C=C/c3ccc(C(C)C)cc3)cc2)s1,,"inconclusive: 35.5 µM [inhibitor, partial curve]"
NC(=S)N=Nc1c(O)n(Cc2ccc(F)cc2)c2ccccc12,inactive: -9.14%,
C=CCn1c(SCC(=O)OCC)nc2cc(C(=O)NCc3ccco3)ccc2c1=O,,"inconclusive: 25.1 µM [inhibitor, partial curve]"
Cc1nnn(C23CC4CC(CC(CC(=O)Nc5ccc(C)c(C)c5)(C4)C2)C3)n1,,"inconclusive: 39.8 µM [inhibitor, single point]"
CCOC(=O)CC1(NC(=O)c2cc(COc3cncc(Cl)c3)on2)CCCCC1,,"inconclusive: 50.1 µM [inhibitor, single point]"
CCc1n[nH]c(=S)n1/N=C/c1c(C)nn(-c2ccccc2)c1Cl,inactive: -1.97%,
Cc1cc(C(=O)NC(=S)Nc2cccc(C(=O)O)c2C)ccc1[N+](=O)[O-],inactive: -1.99%,
O=C(Cn1nc(-c2ccccc2Cl)ccc1=O)Nc1ccc(Br)cc1,,"inconclusive: 10 µM [inhibitor, partial curve]"
O=c1cc(N2CCCCC2)c(-c2ccccc2)nn1Cc1ccc(F)cc1,,"inconclusive: 20 µM [inhibitor, partial curve]"
CCCCNc1nc(C#N)nc(Nc2ccccc2)n1,inactive: -0.155%,
O=C(/C=C/c1cccc([N+](=O)[O-])c1)NCCSCc1ccccc1Cl,,"inconclusive: 11.2 µM [inhibitor, partial curve]"
Nc1nc(Cl)cc(NCCc2ccccc2)n1,,"inconclusive: 15.8 µM [inhibitor, partial curve]"
COC(=O)c1c(C)[nH]c(C(=O)C(C)Sc2nnc(-c3cc(OC)c(OC)c(OC)c3)o2)c1C (configuration not stated),inactive: 1.58%,
CCN(CC)C(=O)Oc1ccc(Br)c2ccccc12,,"inconclusive: 50.1 µM [inhibitor, single point]"
CCn1c(COc2ccccc2)nnc1SCC(=O)C(C)(C)C,,"inconclusive: 35.5 µM [inhibitor, partial curve]"
Cc1ccc(OCc2cc(C(=O)N(C)CCc3ccccn3)no2)cc1C,,"inconclusive: 22.4 µM [inhibitor, partial curve]"
O=C(N/N=C/c1cccc(OC(=O)c2ccccc2Cl)c1)c1cccnc1,,"inconclusive: 31.6 µM [inhibitor, single point]"
COc1cc(CNC2CCCC2)cc(Cl)c1OCc1ccccc1Cl,,"inconclusive: 28.2 µM [inhibitor, partial curve]"
O=C1C2C3C=CC(C3)C2C(=O)N1c1ccc2c(c1)CCC2 (configuration not stated),,"inconclusive: 7.08 µM [inhibitor, full curve]"
